Laboratory results published in patent US9809808B2, “Antimicrobial agents” (KATHOLIEKE UNIVERSITEIT LEUVEN K.U. LEUVEN R&D, priority 2008, dated 2017).
Where “and” joins values, the source holds several entries; their conditions need not be identical. Equal values may be shown once.

Legend:
[1] = tested on: P. aeruginosa PAO1p; test: Antibacterial activity of PSP3gp10 and PKPSP3gp10 with and without EDTA (30 minutes, colony count); type: cell-based, Pseudomonas aeruginosa; conditions: for relative inactivation in logarithmic units (log10N0/Ni): 30 minutes; for interaction of EDTA with the endolysin (in words): PAO1p
[2] = tested on: P. aeruginosa PAO1p; test: Antibacterial activity of P2gp09 and PKP2gp09 with and without EDTA (30 minutes, colony count); type: cell-based, Pseudomonas aeruginosa; conditions: for relative inactivation in logarithmic units (log10N0/Ni): 30 minutes
[3] = tested on: P. aeruginosa PAO1p cells; test: Antibacterial activity of unmodified and modified phiKZgp144 and ELgp188 (colony count after 1 hour); type: cell-based, Pseudomonas aeruginosa; conditions: for reduction of cell numbers compared to the negative control (in words): 100 μg/ml, student's t-test, α=0.05; for reduction of cell numbers compared to the negative control (in words) / antibacterial activity as relative inactivation (%) / antibacterial activity in logarithmic units (log10N0/Ni): 1 hour; for antibacterial activity as relative inactivation (%) / antibacterial activity in logarithmic units (log10N0/Ni): exponentially growing cells, 100 μg/ml undialyzed protein, room temperature
[4] = tested on: P. aeruginosa PAO1p cells; test: Antibacterial activity of phiKZgp144 variants with different polycationic peptide stretches (colony count after 1 hour); conditions: 100 μg/ml undialyzed protein, room temperature
[5] = 1.315 μM endolysin + 0.5 mM EDTA

B1: PSP3gp10: SEQ ID NO: 8: unmodified globular endolysin with 165 amino acid residues originating from Salmonella typhimurium phage PSP3 (protein)
chain: MPVINTHQNIAAFLDMLAYSEGTANHPLTKNRGYDVIVTGFDGSPEIFTDYSDHPFAHGRPPKVFNRRGEKSTASGRYQQLYIFWPHYKKQLALPDFSPLSQDKLAIQLIRERGAIDDIRAGRIERAVSRCRNIWASLPGAGYGQREHSLEKLVTVWRTAGGVMA
modifications: PSP3gp10
relative inactivation in logarithmic units (log10N0/Ni) [1, 5]: 3.552 +/− 0.536 logarithmic units
relative inactivation in logarithmic units (log10N0/Ni) ([1]; 1.315 μM endolysin, no EDTA): 0.383 +/− 0.015 logarithmic units
interaction of EDTA with the endolysin (in words) [1, 5]: synergistically

B2: P2gp09: SEQ ID NO: 9: unmodified globular endolysin of 165 amino acid residues originating from Escherichia coli phage P2 (protein)
chain: MPVINTHQNIAAFLDMLAVSEGTANHPLTKNRGYDVIVTGLDGKPEIFTDYSDHPFAHGRPAKVFNRRGEKSTASGRYQQLYLFWPHYRKQLALPDFSPLSQDRLAIQLIRERGALDDIRAGRIERAISRCRNIWASLPGAGYGQREHSLEKLVTVWRTAGGVPA
modifications: P2gp09
relative inactivation in logarithmic units (log10N0/Ni) [2, 5]: 2.840 logarithmic units
relative inactivation in logarithmic units (log10N0/Ni) ([2]; 1.315 μM endolysin, no EDTA): 0.374 logarithmic units

B3: ELgp188: SEQ ID NO: 2: unmodified modular endolysin originating from Pseudomonas aeruginosa phage EL (protein)
chain: MNFRTKNGYRDLQALVKELGLYTGQIDGVWGKGTSSSTETLLRGYAEVVGKNTGGIGLPTTSDASGYNVITALQRNLAFLGLYSLTVDGIWGNGTLSGLDKAFEVYKERYRTPTYDIAWSGKVSPAFTAKVKDWCGVHVPNHRAPHWLMACMAFETGQTFSPSIKNAAGSEAYGLIQFMSPAANDLNVPLSVIRSMDQLTQLDLVFKYFEMWMKRGKRYTQLEDFYLTIFHPASVGKKADEVLFLQGSKAYLQNKGFDVDKDGKITLGEISSTLYTTYYKGLLPENRHVISY
modifications: ELgp188
reduction of cell numbers compared to the negative control (in words) [3]: do not reduce cell numbers significantly
antibacterial activity as relative inactivation (%) [3]: 10 ± 13%
antibacterial activity in logarithmic units (log10N0/Ni) [3]: 0.05 ± 0.06 log

B4: KRK_6_pET32b: SEQ ID NO: 44: phiKZgp144 with N-terminal peptide stretch KRKKRK (SEQ ID NO: 10) (protein)
chain: AMGSKRKKRKKVLRKGDRGDEVCQLQTLLNLCGYDVGKPDGIFGNNTFNQVVKFQKDNCLDSDGIVGKNTWAELFSKYSPPIPYKTIPMPTANKSRAAATPVMNAVENATGVRSQLLLTFASIESAFDYEIKAKTSSATGWFQFLTGTWKTMIENYGMKYGVLTDPTGALRKDPRISALMGAELIKENMNILRPVLKREPTDTDLYLAHFFGPGAARRFLTTGQNELAATHFPKEAQANPSIFYNKDGSPKTIQEVYNLMDGKVAAHRK
modifications: KRK_6_pET32b
Reduction [%] (relative inactivation) [4]: 99.9%

B5: POLY-gp188: SEQ ID NO: 39: ELgp188 (SEQ ID NO: 2) with N-terminal peptide stretch KRKKRKKRK (SEQ ID NO: 11) (protein)
chain: MGSKRKKRKKRKNFRTKNGYRDLQALVKELGLYTGQIDGVWGKGTSSSTETLLRGYAEVVGKNTGGIGLPTTSDASGYNVITALQRNLAFLGLYSLTVDGIWGNGTLSGLDKAFEVYKERYRTPTYDIAWSGKVSPAFTAKVKDWCGVHVPNHRAPHWLMACMAFETGQTFSPSIKNAAGSEAYGLIQFMSPAANDLNVPLSVIRSMDQLTQLDLVFKYFEMWMKRGKRYTQLEDFYLTIFHPASVGKKADEVLFLQGSKAYLQNKGFDVDKDGKITLGEISSTLYTTYYKGLLPENRHVISY
modifications: POLY-gp188
reduction of cell numbers compared to the negative control (in words) [3]: significant reduction
antibacterial activity as relative inactivation (%) [3]: 98.0±0.2%
antibacterial activity in logarithmic units (log10N0/Ni) [3]: 1.7 ± 0.1 log

B6: POLY-gp144: SEQ ID NO: 35: phiKZgp144 (SEQ ID NO: 1) with N-terminal peptide stretch KRKKRKKRK (SEQ ID NO: 11) (protein)
chain: MGSKRKKRKKRKKVLRKGDRGDEVCQLQTLLNLCGYDVGKPDGIFGNNTFNQVVKFQKDNCLDSDGIVGKNTWAELFSKYSPPIPYKTIPMPTANKSRAAATPVMNAVENATGVRSQLLLTFASIESAFDYEIKAKTSSATGWFQFLTGTWKTMIENYGMKYGVLTDPTGALRKDPRISALMGAELIKENMNILRPVLKREPTDTDLYLAHFFGPGAARRFLTTGQNELAATHFPKEAQANPSIFYNKDGSPKTIQEVYNLMDGKVAAHRK
modifications: POLY-gp144
reduction of cell numbers compared to the negative control (in words) [3]: significant reduction
antibacterial activity as relative inactivation (%) [3]: 99.85±0.09%
antibacterial activity in logarithmic units (log10N0/Ni) [3]: 2.9±0.3 log
inactivation level in log units ([3]; protein dialyzed to 50 mM KH2PO4/K2HPO4 pH 7 instead of undialyzed): 3.9±0.2 log units

B7: K8_pET32b: SEQ ID NO: 48: phiKZgp144 with N-terminal peptide stretch KKKKKKKK (SEQ ID NO: 13) (protein)
chain: AMGSKKKKKKKKKVLRKGDRGDEVCQLQTLLNLCGYDVGKPDGIFGNNTFNQVVKFQKDNCLDSDGIVGKNTWAELFSKYSPPIPYKTIPMPTANKSRAAATPVMNAVENATGVRSQLLLTFASIESAFDYEIKAKTSSATGWFQFLTGTWKTMIENYGMKYGVLTDPTGALRKDPRISALMGAELIKENMNILRPVLKREPTDTDLYLAHFFGPGAARRFLTTGQNELAATHFPKEAQANPSIFYNKDGSPKTIQEVYNLMDGKVAAHRK
modifications: K8_pET32b
Reduction [%] (relative inactivation) [4]: 99%

B8: PKPSP3gp10: SEQ ID NO: 53: PSP3gp10 (SEQ ID NO: 8) with N-terminal peptide stretch KRKKRKKRK (SEQ ID NO: 11) (protein)
chain: MGSKRKKRKKRKPVINTHQNIAAFLDMLAYSEGTANHPLTKNRGYDVIVTGFDGSPEIFTDYSDHPFAHGRPPKVFNRRGEKSTASGRYQQLYIFWPHYKKQLALPDFSPLSQDKLAIQLIRERGAIDDIRAGRIERAVSRCRNIWASLPGAGYGQREHSLEKLVTVWRTAGGVMA
modifications: PKPSP3gp10
relative inactivation in logarithmic units (log10N0/Ni) [1, 5]: >4.146 logarithmic units
relative inactivation in logarithmic units (log10N0/Ni) ([1]; 1.315 μM endolysin, no EDTA): 0.344 +/− 0.163 logarithmic units
interaction of EDTA with the endolysin (in words) [1, 5]: synergistically

B9: PKP2gp09: SEQ ID NO: 57: P2gp09 (SEQ ID NO: 9) with N-terminal peptide stretch KRKKRKKRK (SEQ ID NO: 11) (protein)
chain: MGSKRKKRKKRKPVINTHQNIAAFLDMLAVSEGTANHPLTKNRGYDVIVTGLDGKPEIFTDYSDHPFAHGRPAKVFNRRGEKSTASGRYQQLYLFWPHYRKQLALPDFSPLSQDRLAIQLIRERGALDDIRAGRIERAISRCRNIWASLPGAGYGQREHSLEKLVTVWRTAGGVPA
modifications: PKP2gp09
Δ, difference of activity between P2gp09 and PKP2gp09 samples ([2]; 1.315 μM + 0.5 mM EDTA): 0.332 logarithmic units
relative inactivation in logarithmic units (log10N0/Ni) [2, 5]: 3.172 +/− 0.056 logarithmic units
relative inactivation in logarithmic units (log10N0/Ni) ([2]; 1.315 μM endolysin, no EDTA): 0.326 +/− 0.069 logarithmic units
Δ, difference of activity between P2gp09 and PKP2gp09 samples ([2]; 1.315 μM, no EDTA): −0.038 logarithmic units

B10: (POLY)^2-gp144: SEQ ID NO: 36: phiKZgp144 with N-terminal peptide stretch SEQ ID NO: 21 (protein)
chain: MGSKRKKRKKRKRSKRKKRKKRKKVLRKGDRGDEVCQLQTLLNLCGYDVGKPDGIFGNNTFNQVVKFQKDNCLDSDGIVGKNTWAELFSKYSPPIPYKTIPMPTANKSRAAATPVMNAVENATGVRSQLLLTFASIESAFDYEIKAKTSSATGWFQFLTGTWKTMIENYGMKYGVLTDPTGALRKDPRISALMGAELIKENMNILRPVLKREPTDTDLYLAHFFGPGAARRFLTTGQNELAATHFPKEAQANPSIFYNKDGSPKTIQEVYNLMDGKVAAHRK
modifications: (POLY)2-gp144
reduction of cell numbers compared to the negative control (in words) [3]: significant reduction
antibacterial activity in logarithmic units (log10N0/Ni) [3]: ≤ 3.7±0.3 log and 3.7 ± 0.3 log

B11: R9_pET32b: SEQ ID NO: 47: phiKZgp144 with N-terminal peptide stretch RRRRRRRRR (SEQ ID NO: 12) (protein)
chain: AMGSRRRRRRRRRKVLRKGDRGDEVCQLQTLLNLCGYDVGKPDGIFGNNTFNQVVKFQKDNCLDSDGIVGKNTWAELFSKYSPPIPYKTIPMPTANKSRAAATPVMNAVENATGVRSQLLLTFASIESAFDYEIKAKTSSATGWFQFLTGTWKTMIENYGMKYGVLTDPTGALRKDPRISALMGAELIKENMNILRPVLKREPTDTDLYLAHFFGPGAARRFLTTGQNELAATHFPKEAQANPSIFYNKDGSPKTIQEVYNLMDGKVAAHRK
modifications: R9_pET32b
Reduction [%] (relative inactivation) [4]: 99%

B12: (POLY)^2-gp188: SEQ ID NO: 40: ELgp188 with N-terminal peptide stretch SEQ ID NO: 21 (protein)
chain: MGSKRKKRKKRKRSKRKKRKKRKNFRTKNGYRDLQALVKELGLYTGQIDGVWGKGTSSSTETLLRGYAEVVGKNTGGIGLPTTSDASGYNVITALQRNLAFLGLYSLTVDGIWGNGTLSGLDKAFEVYKERYRTPTYDIAWSGKVSPAFTAKVKDWCGVHVPNHRAPHWLMACMAFETGQTFSPSIKNAAGSEAYGLIQFMSPAANDLNVPLSVIRSMDQLTQLDLVFKYFEMWMKRGKRYTQLEDFYLTIFHPASVGKKADEVLFLQGSKAYLQNKGFDVDKDGKITLGEISSTLYTTYYKGLLPENRHVISY
modifications: (POLY)2-gp188
reduction of cell numbers compared to the negative control (in words) [3]: significant reduction
antibacterial activity as relative inactivation (%) [3]: 98.9 ± 0.4%
antibacterial activity in logarithmic units (log10N0/Ni) [3]: 2.0 ± 0.2 log
